Measurements: the supplement of paper PMC10126150
Sequences with one replicate were seen in a single cluster, so their values are uncertain.

Test system: ATP
Assay: switch fluorescence ratio, 500 uM ATP over buffer (Cy3 cluster intensity, sum of 5 cycles each) (fold (ratio)); higher = stronger signal-on switching upon ATP binding; sequences stand for … in TCGTCGGCAGCGTCAGATGTGTATAAGAGACAGTTTTTTTTTTTTTTTTTTTTTTTTT…TC
Conditions: aptamer strand: ATP DNA aptamer (quencher-CACCTGGGGGAGTATTGCGGAGGAAGG + anchor), 100 nM annealed; ATP concentration: 500 uM; one replicate
Outline: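 Cy3-labelled switching-strand clusters on a modified Illumina MiSeq flow-cell were annealed to 100 nM quencher-labelled ATP aptamer and imaged first in selection buffer, then after 15 min with 500 uM ATP at 22 °C. NaOH stripping and re-annealing separated each of five buffer/ATP cycles, and clusters outside 100-1000 RFU were excluded. The fluorescence ratio sums target-cycle Cy3 intensity over buffer-cycle Cy3 intensity per cluster and averages it per switch-domain sequence.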
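Further: ATP exposure 15 min at 22 °C before imaging.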

CGGGATGCTC
switch fluorescence ratio: 1.52

TACAGTGCGC
switch fluorescence ratio: 0.944

AATAGACGGT
switch fluorescence ratio: 1.03

ATTATGCTCT
switch fluorescence ratio: 1.03

ACAATCACC
switch fluorescence ratio: 1.15

CACGATGTCG
switch fluorescence ratio: 1.29

ACACCAGCGA
switch fluorescence ratio: 0.732

CCTGGTAACA
switch fluorescence ratio: 0.984

GGCGCCCAAA
switch fluorescence ratio: 0.993

CCCGTCAGCA
switch fluorescence ratio: 1.23

AACACGACAA
switch fluorescence ratio: 1.19

TCATCTCGTC
switch fluorescence ratio: 1.05

TATGACAGCC
switch fluorescence ratio: 1.08

ATGGCGCACA
switch fluorescence ratio: 1.02

TTACCGTTTG
switch fluorescence ratio: 1.02

GTTGCGAATA
switch fluorescence ratio: 1.04

CGTCATCGTG
switch fluorescence ratio: 0.969

TAAGGGTAGC
switch fluorescence ratio: 1.06

AAGATAGGCA
switch fluorescence ratio: 0.997

GGGGATCGGA
switch fluorescence ratio: 0.997

TCGCACCTCG
switch fluorescence ratio: 1.15

CGGTGCTAAT
switch fluorescence ratio: 1.02

CTGCTAGGAA
switch fluorescence ratio: 1.05

TTTCGAATAG
switch fluorescence ratio: 1.05

GAAGGCATCG
switch fluorescence ratio: 1.06

TGCGATATAG
switch fluorescence ratio: 1.08

TGTATATTCA
switch fluorescence ratio: 1.05

AAATGGGA
switch fluorescence ratio: 1.02

CAATGTGGTG
switch fluorescence ratio: 0.996

TTTGCTCGAA
switch fluorescence ratio: 1.02

AATAGAAACG
switch fluorescence ratio: 1.02

TGAACCTAAT
switch fluorescence ratio: 0.996

GGACTTCGGT
switch fluorescence ratio: 1.02

ATTAAGCGCC
switch fluorescence ratio: 0.989

CATGTTGTTT
switch fluorescence ratio: 0.968

GAAAAGCACG
switch fluorescence ratio: 1.36

ACCTGGACAC
switch fluorescence ratio: 1.19

TCGTGATGCT
switch fluorescence ratio: 0.92

GTGGCTAGGA
switch fluorescence ratio: 1.03

ATAAGATCTA
switch fluorescence ratio: 0.987

AAAAGCAGAG
switch fluorescence ratio: 0.994

TTAATTGTCC
switch fluorescence ratio: 0.979

AAATCGTGCG
switch fluorescence ratio: 1

AGCGAACACG
switch fluorescence ratio: 1.08

GAAAGCATCC
switch fluorescence ratio: 1.56

TACCTGGATG
switch fluorescence ratio: 0.996

CACAAAGCTT
switch fluorescence ratio: 1

GCACGCACTG
switch fluorescence ratio: 1.69

TGCGCCAGCT
switch fluorescence ratio: 1

GATCGATCGC
switch fluorescence ratio: 1.1

CCCGTTAAAT
switch fluorescence ratio: 1.08

TGATAAAAGA
switch fluorescence ratio: 1.12

TCACTGGGGT
switch fluorescence ratio: 1.05

TACAATGTGA
switch fluorescence ratio: 1.02

GGCCAATCTC
switch fluorescence ratio: 1.03

ATGAAGTCTG
switch fluorescence ratio: 1.02

CAACTCCGG
switch fluorescence ratio: 1.16

CGTATCCCCG
switch fluorescence ratio: 1.08

GCCGAAAACA
switch fluorescence ratio: 0.966

TCCATTTACG
switch fluorescence ratio: 1.06

GCGATGTGG
switch fluorescence ratio: 1.02

ACTTACGCGA
switch fluorescence ratio: 1.13

GTTTTCGAAA
switch fluorescence ratio: 1.05

CAGGGTGCAG
switch fluorescence ratio: 0.908

TTAGCTGGGG
switch fluorescence ratio: 1.01

TTAAGCCTGA
switch fluorescence ratio: 1.02

GGCGTTTTCT
switch fluorescence ratio: 0.976

CGAATTACGC
switch fluorescence ratio: 1.18

TTTAAGTAGA
switch fluorescence ratio: 1.03

ACTAAGCACG
switch fluorescence ratio: 1.12

GCAATTTCTA
switch fluorescence ratio: 1.07

TATAAGCAGA
switch fluorescence ratio: 1.05

CGTTGGCCT
switch fluorescence ratio: 0.991

TCACGGGCCG
switch fluorescence ratio: 1.07

GCGGAAGAAG
switch fluorescence ratio: 0.995

TAGAGCCAGC
switch fluorescence ratio: 1.02

AAGTTGCAGG
switch fluorescence ratio: 1.03

GTGGACGGTG
switch fluorescence ratio: 0.99

AGGAAAGGCC
switch fluorescence ratio: 0.984

TGCGTGAGAA
switch fluorescence ratio: 1.01

ACAGGCAAGC
switch fluorescence ratio: 1.28

CCCCGTGTAG
switch fluorescence ratio: 1.37

CAATGACTCG
switch fluorescence ratio: 1.04

GATGGCAAAC
switch fluorescence ratio: 3.39

ATTGGTGCCT
switch fluorescence ratio: 1.03

TATTTAGACA
switch fluorescence ratio: 0.997

TTCGACTACT
switch fluorescence ratio: 1.16

CAAGCTCTAT
switch fluorescence ratio: 0.961

GTTATCCAAT
switch fluorescence ratio: 0.983

CATAAACGTG
switch fluorescence ratio: 1.04

TAAGTTCATA
switch fluorescence ratio: 1.05

ATTAGACCTT
switch fluorescence ratio: 1.23

ATAACCGACT
switch fluorescence ratio: 1.18

ATTTGCCGTC
switch fluorescence ratio: 1.07

TGTAGTCTCT
switch fluorescence ratio: 1.01

GAGAGTCCGA
switch fluorescence ratio: 1.06

AAAACGAGG
switch fluorescence ratio: 1.01

CTTTCTGGAG
switch fluorescence ratio: 1.29

GCCGCGCG
switch fluorescence ratio: 1.05

CGCGCGAGCA
switch fluorescence ratio: 1.04

AAATCGTAGC
switch fluorescence ratio: 1.03

TTGAACCCAT
switch fluorescence ratio: 1

ATGCCTGGAC
switch fluorescence ratio: 1.06

CGGAATGTTC
switch fluorescence ratio: 1.06

GTGAGTGTGA
switch fluorescence ratio: 1.02

ATGGACGCTG
switch fluorescence ratio: 0.954

CCAGTGCTAG
switch fluorescence ratio: 1.01

TGTAACCAAA
switch fluorescence ratio: 1.01

CGGGCGGTGT
switch fluorescence ratio: 1.07

GCTATTGTA
switch fluorescence ratio: 0.993

CAGATTGGCC
switch fluorescence ratio: 1.02

GGATATAAAG
switch fluorescence ratio: 1.04

TAGTCCCATG
switch fluorescence ratio: 1.05

TACCAGGGGG
switch fluorescence ratio: 1.13

CGTGACAGAC
switch fluorescence ratio: 1.09

TTCTGGCAGT
switch fluorescence ratio: 0.982

AAAGGCCAAG
switch fluorescence ratio: 0.97

GTTTCGGGGC
switch fluorescence ratio: 0.977

ATTATAGAAG
switch fluorescence ratio: 0.981

CGGATTTTAG
switch fluorescence ratio: 1.03

AGTCCTACGA
switch fluorescence ratio: 1.04

AGCGACAGGG
switch fluorescence ratio: 1.06

CCATCCACCC
switch fluorescence ratio: 1.08

CACGAAGTCT
switch fluorescence ratio: 0.942

GCTTATAAAA
switch fluorescence ratio: 0.99

AAGGCGTGCC
switch fluorescence ratio: 0.991

CAATATTCGA
switch fluorescence ratio: 0.976

TCCCCCACGA
switch fluorescence ratio: 5.61

GCAACCACCT
switch fluorescence ratio: 1.18

CTCCCGGGTT
switch fluorescence ratio: 1.24

TTAATACCCC
switch fluorescence ratio: 1.14

AGAGTCCAAC
switch fluorescence ratio: 1

TGCTCAGAAT
switch fluorescence ratio: 1.02

ATAGGCGAGG
switch fluorescence ratio: 1.01

GCTAGTGTCC
switch fluorescence ratio: 1.04

ACCGGGCTTA
switch fluorescence ratio: 1.03

TTTGTACGAT
switch fluorescence ratio: 0.981

GGCTCCGTAT
switch fluorescence ratio: 1.22

GCGTGCCTCC
switch fluorescence ratio: 1.21

GAGAGAACGG
switch fluorescence ratio: 0.98

GGAATTCCGT
switch fluorescence ratio: 0.995

TATTATAG
switch fluorescence ratio: 1

CAGTCATGAC
switch fluorescence ratio: 1.03

TAGTGGCATC
switch fluorescence ratio: 1

AGGGCTACCT
switch fluorescence ratio: 1.03

GTCTTTATTT
switch fluorescence ratio: 1.01

AGATCGTTAT
switch fluorescence ratio: 0.979

TGCGTTGGGA
switch fluorescence ratio: 1.04

AGCCTTGCCC
switch fluorescence ratio: 0.969

ATAGCCGCTT
switch fluorescence ratio: 1.04

GCCGAGTCCT
switch fluorescence ratio: 1.01

TCAAAAAATC
switch fluorescence ratio: 1.02

AAACCGTTCG
switch fluorescence ratio: 1.24

GCGAAACGCG
switch fluorescence ratio: 1.01

GACGCAGTGT
switch fluorescence ratio: 1.33

AGTTTAGGCA
switch fluorescence ratio: 0.998

ACCTGAACG
switch fluorescence ratio: 1.28
